Laboratory results from the supplement of paper PMC8728848.
The other results are listed elsewhere or left out.

Legend:
Experiment in all cases: glycan array binding signal (z-score within array); higher = stronger binding
Conditions in all cases: glycan notation: IUPAC condensed, linker removed; mutation: D109R
[1] = molecular target: Gal(a1-3)Gal(b1-4)GlcNAc
How it was run: (§1)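 The binding signal is a Z-score computed within each array. Data were drawn from 3228 arrays in the Consortium for Functional Glycomics database, restricted to those with a known protein sequence. Scores were averaged over arrays of the same protein sequence at different concentrations or buffers, and over linkers, and negative values can be taken as non-binding.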

[2] = molecular target: Gal(a1-3)Gal(b1-4)GlcNAc(b1-2)Man
How it was run: as §1

[3] = molecular target: Gal(a1-3)Gal(b1-4)GlcNAc(b1-2)Man(a1-3)[Gal(a1-3)Gal(b1-4)GlcNAc(b1-2)Man(a1-6)]Man(b1-4)GlcNAc(b1-4)GlcNAc
How it was run: as §1

[4] = molecular target: Gal(a1-3)Gal(b1-4)GlcNAc(b1-3)GalNAc
How it was run: as §1

[5] = molecular target: Gal(a1-3)Gal(b1-4)GlcNAc(b1-6)GalNAc
How it was run: as §1

[6] = molecular target: Gal(a1-3)Gal(b1-4)[Fuc(a1-3)]GlcNAc
How it was run: as §1

[7] = molecular target: Gal(a1-3)Gal(b1-4)[Fuc(a1-3)]GlcNAc(b1-2)Man(a1-3)[Gal(a1-3)Gal(b1-4)[Fuc(a1-3)]GlcNAc(b1-2)Man(a1-6)]Man(b1-4)GlcNAc(b1-4)GlcNAc
How it was run: as §1

[8] = molecular target: Gal(a1-3)GalNAc
How it was run: as §1

[9] = molecular target: Gal(a1-3)[Gal(a1-4)]Gal(b1-4)GlcNAc
How it was run: as §1

[10] = molecular target: Gal(a1-4)Gal(b1-3)GlcNAc(b1-2)Man(a1-3)[Gal(a1-4)Gal(b1-3)GlcNAc(b1-2)Man(a1-6)]Man(b1-4)GlcNAc(b1-4)GlcNAc
How it was run: as §1

[11] = molecular target: Gal(a1-4)Gal(b1-4)Glc
How it was run: as §1

[12] = molecular target: Gal(a1-4)Gal(b1-4)GlcNAc
How it was run: as §1

[13] = molecular target: Gal(a1-4)Gal(b1-4)GlcNAc(b1-2)Man(a1-3)[Gal(a1-4)Gal(b1-4)GlcNAc(b1-2)Man(a1-6)]Man(b1-4)GlcNAc(b1-4)GlcNAc
How it was run: as §1

[14] = molecular target: Gal(a1-4)Gal(b1-4)GlcNAc(b1-3)Gal(b1-4)Glc
How it was run: as §1

[15] = molecular target: Gal(a1-4)GlcNAc
How it was run: as §1

[16] = molecular target: Gal(a1-6)Glc
How it was run: as §1

[17] = molecular target: Gal(b1-2)Gal
How it was run: as §1

[18] = molecular target: Gal(b1-3)Gal
How it was run: as §1

[19] = molecular target: Gal(b1-3)Gal(b1-4)GlcNAc
How it was run: as §1

[20] = molecular target: Gal(b1-3)GalNAc
How it was run: as §1

[21] = molecular target: Gal(b1-3)GalNAc(a1-3)[Fuc(a1-2)]Gal(b1-4)Glc
How it was run: as §1

[22] = molecular target: Gal(b1-3)GalNAc(a1-3)[Fuc(a1-2)]Gal(b1-4)GlcNAc
How it was run: as §1

[23] = molecular target: Gal(b1-3)GalNAc(b1-3)Gal
How it was run: as §1

[24] = molecular target: Gal(b1-3)GalNAc(b1-3)Gal(a1-4)Gal(b1-4)Glc
How it was run: as §1

[25] = molecular target: Gal(b1-3)GalNAc(b1-4)Gal(b1-4)Glc
How it was run: as §1

[26] = molecular target: Gal(b1-3)GalNAc(b1-4)[Neu5Ac(a2-3)]Gal(b1-4)Glc
How it was run: as §1

[27] = molecular target: Gal(b1-3)GlcNAc
How it was run: as §1

[28] = molecular target: Gal(b1-3)GlcNAc(a1-3)Gal(b1-4)GlcNAc
How it was run: as §1

[29] = molecular target: Gal(b1-3)GlcNAc(a1-6)Gal(b1-4)GlcNAc
How it was run: as §1

[30] = molecular target: Gal(b1-3)GlcNAc(b1-2)Man
How it was run: as §1

[31] = molecular target: Gal(b1-3)GlcNAc(b1-2)Man(a1-3)[Gal(b1-3)GlcNAc(b1-2)Man(a1-6)]Man(b1-4)GlcNAc(b1-4)GlcNAc
How it was run: as §1

[32] = molecular target: Gal(b1-3)GlcNAc(b1-2)Man(a1-3)[Gal(b1-3)GlcNAc(b1-2)Man(a1-6)]Man(b1-4)GlcNAc(b1-4)[Fuc(a1-6)]GlcNAc
How it was run: as §1

[33] = molecular target: Gal(b1-3)GlcNAc(b1-2)Man(a1-3)[GlcNAc(b1-4)][Gal(b1-3)GlcNAc(b1-2)Man(a1-6)]Man(b1-4)GlcNAc(b1-4)GlcNAc
How it was run: as §1

[34] = molecular target: Gal(b1-3)GlcNAc(b1-2)[Gal(b1-3)GlcNAc(b1-6)]Man(a1-6)[Gal(b1-3)GlcNAc(b1-2)Man(a1-3)]Man(b1-4)GlcNAc(b1-4)GlcNAc
How it was run: as §1

[35] = molecular target: Gal(b1-3)GlcNAc(b1-3)Gal(b1-3)GlcNAc
How it was run: as §1

[36] = molecular target: Gal(b1-3)GlcNAc(b1-3)Gal(b1-4)Glc
How it was run: as §1

[37] = molecular target: Gal(b1-3)GlcNAc(b1-3)Gal(b1-4)GlcNAc
How it was run: as §1

[38] = molecular target: Gal(b1-3)GlcNAc(b1-3)Gal(b1-4)GlcNAc(b1-2)Man(a1-3)[Gal(b1-3)GlcNAc(b1-3)Gal(b1-4)GlcNAc(b1-2)Man(a1-6)]Man(b1-4)GlcNAc(b1-4)GlcNAc
How it was run: as §1

[39] = molecular target: Gal(b1-3)GlcNAc(b1-3)Gal(b1-4)GlcNAc(b1-2)[Gal(b1-3)GlcNAc(b1-3)Gal(b1-4)GlcNAc(b1-6)]Man(a1-6)[Gal(b1-3)GlcNAc(b1-3)Gal(b1-4)GlcNAc(b1-2)Man(a1-3)]Man(b1-4)GlcNAc(b1-4)[Fuc(a1-6)]GlcNAc
How it was run: as §1

[40] = molecular target: Gal(b1-3)GlcNAc(b1-3)Gal(b1-4)GlcNAc(b1-3)Gal(b1-4)GlcNAc(b1-2)[Gal(b1-3)GlcNAc(b1-3)Gal(b1-4)GlcNAc(b1-3)Gal(b1-4)GlcNAc(b1-6)]Man(a1-6)[Gal(b1-3)GlcNAc(b1-3)Gal(b1-4)GlcNAc(b1-3)Gal(b1-4)GlcNAc(b1-2)Man(a1-3)]Man(b1-4)GlcNAc(b1-4)[Fuc(a1-6)]GlcNAc
How it was run: as §1

[41] = molecular target: Gal(b1-3)GlcNAc(b1-3)Gal(b1-4)GlcNAc(b1-6)[Gal(b1-3)GlcNAc(b1-3)]Gal(b1-4)Glc
How it was run: as §1

[42] = molecular target: Gal(b1-3)GlcNAc(b1-3)Gal(b1-4)[Fuc(a1-3)]GlcNAc
How it was run: as §1

[43] = molecular target: Gal(b1-3)GlcNAc(b1-3)Gal(b1-4)[Fuc(a1-3)]GlcNAc(b1-6)[Gal(b1-3)GlcNAc(b1-3)]Gal(b1-4)Glc
How it was run: as §1

[44] = molecular target: Gal(b1-3)GlcNAc(b1-3)GalNAc
How it was run: as §1

[45] = molecular target: Gal(b1-3)GlcNAc(b1-6)Gal(b1-4)GlcNAc
How it was run: as §1

B1: MpL2 (Macrolepiota procera) (protein)
chain: MSTQVSSGQTYKITNVKAGTVIDLSGEDNKSIIGYPYHSGKNQQWTFNWTGKAWTLRSASSGSYLGIEGTPADGTRLVAVNDPFEWHIWRDEANENAFRIFVPFTNYNLRLSGYGDTTPGTPVQLWWTWEGLHQTWTIDRP
B1 was tested, and the “glycan array binding signal (z-score)” value [1] was -0.264, the “glycan array binding signal (z-score)” value [2] was -0.302 and the “glycan array binding signal (z-score)” value [3] was -0.227. The “glycan array binding signal (z-score)” value [4] was -0.265, the “glycan array binding signal (z-score)” value [5] was -0.314 and the “glycan array binding signal (z-score)” value [6] was -0.273. The “glycan array binding signal (z-score)” value [7] was -0.196, the “glycan array binding signal (z-score)” value [8] was -0.244 and the “glycan array binding signal (z-score)” value [9] was -0.242. For the same binder, the “glycan array binding signal (z-score)” value [10] was -0.229, the “glycan array binding signal (z-score)” value [11] was -0.249 and the “glycan array binding signal (z-score)” value [12] was -0.289. For the same binder, the “glycan array binding signal (z-score)” value [13] was -0.118, the “glycan array binding signal (z-score)” value [14] was -0.482 and the “glycan array binding signal (z-score)” value [15] was -0.264. For the same binder, the “glycan array binding signal (z-score)” value [16] was -0.267, the “glycan array binding signal (z-score)” value [17] was -0.285 and the “glycan array binding signal (z-score)” value [18] was -0.24. For the same binder, the “glycan array binding signal (z-score)” value [19] was -0.255, the “glycan array binding signal (z-score)” value [20] was -0.256 and the “glycan array binding signal (z-score)” value [21] was -0.212. For the same binder, the “glycan array binding signal (z-score)” value [22] was -0.201, the “glycan array binding signal (z-score)” value [23] was -0.266 and the “glycan array binding signal (z-score)” value [24] was -0.234. For the same binder, the “glycan array binding signal (z-score)” value [25] was -0.202, the “glycan array binding signal (z-score)” value [26] was -0.252 and the “glycan array binding signal (z-score)” value [27] was 0.061. For the same binder, the “glycan array binding signal (z-score)” value [28] was 1.13, the “glycan array binding signal (z-score)” value [29] was 3.81 and the “glycan array binding signal (z-score)” value [30] was -0.13. The “glycan array binding signal (z-score)” value [31] was 2.09, the “glycan array binding signal (z-score)” value [32] was 0.858 and the “glycan array binding signal (z-score)” value [33] was 2.2. The “glycan array binding signal (z-score)” value [34] was 3.46, the “glycan array binding signal (z-score)” value [35] was 0.471 and the “glycan array binding signal (z-score)” value [36] was 0.863. The “glycan array binding signal (z-score)” value [37] was 0.977, the “glycan array binding signal (z-score)” value [38] was 3.2 and the “glycan array binding signal (z-score)” value [39] was 2.62. The “glycan array binding signal (z-score)” value [40] was 3.37, the “glycan array binding signal (z-score)” value [41] was 3.65 and the “glycan array binding signal (z-score)” value [42] was 0.627. The “glycan array binding signal (z-score)” value [43] was 2.47, the “glycan array binding signal (z-score)” value [44] was -0.183 and the “glycan array binding signal (z-score)” value [45] was 1.78.
